Measured values taken from article PMC6602471.
The entries are a selection whose mix differs from that of the whole data set. At the low end of the ranking the order means little.

Target: RUNX1 (UniProt Q01196)
Experiment: custom PBM
Settings: custom protein-binding microarray; buffer, salt, pH and temperature not stated; high values mean tight binding; double strand, one strand shown

Chain of UniProt Q01196 (Q01196 whole entry): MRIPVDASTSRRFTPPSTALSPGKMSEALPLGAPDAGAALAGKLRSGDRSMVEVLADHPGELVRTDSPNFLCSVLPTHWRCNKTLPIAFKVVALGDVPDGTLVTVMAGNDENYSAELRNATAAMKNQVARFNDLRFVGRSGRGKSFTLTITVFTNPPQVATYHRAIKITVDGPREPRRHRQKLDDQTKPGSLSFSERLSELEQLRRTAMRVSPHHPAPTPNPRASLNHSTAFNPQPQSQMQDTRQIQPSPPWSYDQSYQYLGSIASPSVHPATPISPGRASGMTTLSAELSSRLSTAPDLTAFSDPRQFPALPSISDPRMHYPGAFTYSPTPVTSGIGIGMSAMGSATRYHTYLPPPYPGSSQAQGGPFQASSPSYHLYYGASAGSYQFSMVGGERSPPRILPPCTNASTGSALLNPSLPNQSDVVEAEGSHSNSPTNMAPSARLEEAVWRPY

Sequence	binding signal (log fluorescence intensity)
GCGCACGTTTCCCGTAAATCATACACGCACACATACACATACACACATACACATACGCAC	10.9
GCATACGGCTGACGTCACCCACATACGCACACATACACATACACACATACACATACGCAC	10.9
GCATACGGCTGACGTCAGCGACATACGCACACATACACATACACACATACACATACGCAC	10.8
GCATACCGCTGACGTCAGCCACATACGCACACATACACATACACACATACACATACGCAC	10.9
CGCGCACTCTGAGGTTGCGCACATACGCACACATACACATACACACATACACATACGCAC	10.9
CGCGCTCTCTGTGGTTGCGCACATACGCACACATACACATACACACATACACATACGCAC	11.4
GCGCACATTTCCCGTAATTCATACACGCACACATACACATACACACATACACATACGCAC	10.9
GCATACGGATGACGTCAGCCACATACGCACACATACACATACACACATACACATACGCAC	10.8
GCGCACATTTCCCGTAAATAATACACGCACACATACACATACACACATACACATACGCAC	10.9
GCATACGGCTGATGTCAGCCACATACGCACACATACACATACACACATACACATACGCAC	10.9
GCGCACATTTCCCGTAAAACATACACGCACACATACACATACACACATACACATACGCAC	10.9
CGCGCACTTTGTGGTTGCGCACATACGCACACATACACATACACACATACACATACGCAC	11.6
CGCGCACTCCGTGGTTGCGCACATACGCACACATACACATACACACATACACATACGCAC	10.9
GCATACGGCTGACGTCCGCCACATACGCACACATACACATACACACATACACATACGCAC	10.9
GCATACGGCTTACGTCAGCCACATACGCACACATACACATACACACATACACATACGCAC	10.9
GCATACGGCTGACGTCAGGCACATACGCACACATACACATACACACATACACATACGCAC	10.8
GCATACGGCTGACGTCTGCCACATACGCACACATACACATACACACATACACATACGCAC	10.8
GCGCAAATTTCCCGTAAATCATACACGCACACATACACATACACACATACACATACGCAC	10.9
GCGCACATTTACCGTAAATCATACACGCACACATACACATACACACATACACATACGCAC	10.9
CGCGCACTCTATGGTTGCGCACATACGCACACATACACATACACACATACACATACGCAC	10.9
GCGCACATTTCGCGTAAATCATACACGCACACATACACATACACACATACACATACGCAC	10.9
